Here are results for 44 sequences from the supplement of paper PMC11417369.

± gives the standard deviation of the averaged measurements. Some of the results follow.

This assay relates to PfAP2-EXP AP2 domain (GST-tagged). The assay can be described thus: gcPBM binding intensity (ln(normalized median fluorescence intensity)); higher = stronger DNA binding. In short, it runs like this: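 Binding of GST-tagged P. falciparum DNA-binding domains, expressed in E. coli and used at about 25 μg on average, was carried out for 1 h in 1× PBS containing 1% milk, 0.2 mg/ml BSA, 0.5% salmon testes DNA and 0.03% Triton X-100. The target was an Agilent 4 × 180k array of primer-extended double-stranded 36-bp intergenic genomic probes plus negative controls, read with Alexa488 anti-GST antibody at 488 nm. Binding intensity is the highest Masliner-normalised natural-log median intensity across replicate spots of either probe orientation.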
“GATCACTGAATAAAGGCACACATCTGACTAATTTTT [CACACA_site66]”: the “gcPBM binding intensity (ln)” value amounted to 8.36 ± 0.39.

On to “AAGTCAATTTTTTTTTTTTTTTTTTAACTTATTAAT [TGCATGCA_negctrl_site14]”, for which the “gcPBM binding intensity (ln)” value was 8.09 ± 0.46. With “AATGTATATAATATTAATATGTAAATATATAATCAA [CACACA_negctrl_site1683]” the figure was 8.4 ± 0.34; with “TGAATAAATATATATACACACCCATATATATATATA [CACACA_site8833]”, 10.1 ± 0.28; with “TTAAAAAGTGCGTAGTGTACTAATATAAATAATACA [XGTACX_site2922]”, 8.57 ± 0.16. For the sequence “TGTTAATTAAAGGACTGTACACTAATAATTCTATAA [XGTACX_site5195]”, the “gcPBM binding intensity (ln)” value amounted to 8.5 ± 0.34. For “TCATATGTTTCATGTTGTACATTGAAAGTTTGGCTA [XGTACX_site3202]”, the “gcPBM binding intensity (ln)” value was found to be 8.39 ± 0.36. With “AAATATGTACATATTATATATATATAATATATATTG [TGCATGCA_negctrl_site438]” the figure was 8.3 ± 0.4; with “GTTCTAATATATTGCACACGTAAAAATATAGGTAAT [CACACA_site886]”, 8.83 ± 0.4; with “AAAAAAAAAATATATATATATATATATATATAATTT [GTGCAC_negctrl_site32]”, 8.56 ± 0.13. The result for “AATAAATATAGATTCACACACAAACATATATAAATA [CACACA_site7814]” reads 8.55 ± 0.37; that for “AAGAAAAAAATTTATACAAGAATTTTTTATTATTAA [TGCATGCA_negctrl_site587]”, 8.01 ± 0.62. The result for “TAATTGTACGCCAATACACACAGAATTAGAATGTAG [CACACA_site102]” reads 8.71 ± 0.43. In the case of “ATAAATAAATGGTGTTGTACTCTATTATATATATAT [XGTACX_site7835]”, the “gcPBM binding intensity (ln)” value was determined as 9.48 ± 0.12. As to “TTTTATTGTTGTTATACACACCATATAAAATATTTC [CACACA_site4983]”, the “gcPBM binding intensity (ln)” value amounted to 8.55 ± 0.38. In the case of “ATTCACTAAAAAATTGCATGCAATAAATTTTTTTTT [TGCATGCA_site962]”, the “gcPBM binding intensity (ln)” value turned out to be 9.68 ± 0.11. With “AATTGATTTATATATTGTACATATAAATTTATGTAT [XGTACX_site7785]” the figure was 8.31 ± 0.22. The result for “AAGAAAATTAAATTAACACACATAAATATATATATA [CACACA_site1664]” reads 9.72 ± 0.11; that for “GAGTTATTTCTTATTTAAGCATTCTACATATATATA [CACACA_negctrl_site239]”, 8.25 ± 0.16.

Consider “ATTTTACATATTTGCACACATATATTTAAATACATA [CACACA_site4627]”, for which the “gcPBM binding intensity (ln)” value is 8.77 ± 0.24.

In the case of “ATATTTATCTTTTTATGTACATATGCCCCTTTTCTG [XGTACX_site673]”, the “gcPBM binding intensity (ln)” value was 9.13 ± 0.7. Turning to “TCTTGGTTATTAAAAAAAAAAAAATATATTTTTCCT [TGCATGCA_negctrl_site445]”, the “gcPBM binding intensity (ln)” value came out at 8.09 ± 0.59. Turning to “GTCCTTATGGATGATAAATTATTTTAAATATTCTAT [XGTACX_negctrl_site200]”, the “gcPBM binding intensity (ln)” value was determined as 8.03 ± 0.38.

On to “AATAAAAAATATATGAGTACTAAATTGTTTTCTTAA [XGTACX_site8573]”, for which the “gcPBM binding intensity (ln)” value stood at 8.33 ± 0.49. With “TTGCATATTTCTAATTGTACATTATTTTATTTTATA [XGTACX_site8451]” the figure was 8.74 ± 0.42. Turning to GGGAAAATAAATAAAGTGCAGATATTAAAAGTTGTA, the “gcPBM binding intensity (ln)” value is 8.85 ± 0.28. On to “CTCAACGATAGAGAAACATGCAAGTATAAGCAACTA [TGCATGCA_site771]”, for which the “gcPBM binding intensity (ln)” value came to 9.02 ± 0.49.

As for “CATAGATACATACACGCACACACATATATATATATA [CACACA_site13]”, the “gcPBM binding intensity (ln)” value was determined as 9.97 ± 0.36. As for “GTATTACCTTATTATTGTACTTTCATGATATATATG [XGTACX_site5382]”, the “gcPBM binding intensity (ln)” value was 9.02 ± 0.41. The result for “TTAATGAATGGACACACACACATATATATATATATT [CACACA_site5294]” reads 8.62 ± 0.39; that for “AACATACATGTATATAGTACATATTACATCTGATAC [XGTACX_site3649]”, 8.51 ± 0.52; that for “ATGTAATTATAAGATTAATATACATAATTATATGTA [GTGCAC_negctrl_site458]”, 8.1 ± 0.37. With “TACACAAGAAAATTCACACACACACCCATATATATA [CACACA_site3879]”, the “gcPBM binding intensity (ln)” value came out at 8.75 ± 0.34.

In the case of “CATATAAAAGGACACACACACACATATAAATATGTA [CACACA_site6568]”, the “gcPBM binding intensity (ln)” value was determined as 8.53 ± 0.51. With “ATTTTTATAGAATGAACACACATATTATAGCATTTA [CACACA_site6842]” the figure was 8.45 ± 0.38; with “TGCTATTTTATTTATTCTTTTATAAAAGTATAATAT [XGTACX_negctrl_site358]”, 8.64 ± 0.39. For “ATAAAAAAAATTTGCACACCTTCAAAGTAATATATA [CACACA_site1584]”, the “gcPBM binding intensity (ln)” value came to 8.47 ± 0.25. As for “AAAAAAAAAAAAAGTACATGCAATATGGATCTTAAA [TGCATGCA_site367]”, the “gcPBM binding intensity (ln)” value was 8.96 ± 0.6.

With “TAATTTTTTTTTTTTTTTTTTGTACTTCATTTTTAT [CACACA_negctrl_site1395]”, the “gcPBM binding intensity (ln)” value came to 8.18 ± 0.55. For the sequence “TATATATAAAAAAGCACACATACATACATACATAAT [CACACA_site890]”, the “gcPBM binding intensity (ln)” value stood at 8.9 ± 0.42. With “TTTTCACTTTTAAAAACATGCATACTTTATAAAATA [TGCATGCA_site967]” the figure was 8.56 ± 0.44. The result for “AACATTCTAAAACACACACACACATATATATATATA [CACACA_site1052]” reads 10.1 ± 0.42; that for “TACACAAGCGGACACACACACATATATATATATATA [CACACA_site4832]”, 10.3 ± 0.13; that for “AAAAAAAAAAAACACACACACACATAAATATATATA [CACACA_site149]”, 8.55 ± 0.41.
